Data on 89 compounds can be found in article PMC4336329 (PLoS ONE, 2015).

SMILES strings stand for the structures. The campaign covered roughly 310,000 compounds. About 2,200 (0.71%) showed an effect of 50% or more. Effects have a minus sign here. This is one part of the list.

The target in this assay is human ether-à-go-go-related gene (hERG) potassium channel (human, UniProt Q12809). As to the kind of experiment: primary screen, population patch clamp on CHO cells stably expressing hERG.
human ether-à-go-go-related gene (hERG) potassium channel, sequence (Q12809 whole entry, looked up): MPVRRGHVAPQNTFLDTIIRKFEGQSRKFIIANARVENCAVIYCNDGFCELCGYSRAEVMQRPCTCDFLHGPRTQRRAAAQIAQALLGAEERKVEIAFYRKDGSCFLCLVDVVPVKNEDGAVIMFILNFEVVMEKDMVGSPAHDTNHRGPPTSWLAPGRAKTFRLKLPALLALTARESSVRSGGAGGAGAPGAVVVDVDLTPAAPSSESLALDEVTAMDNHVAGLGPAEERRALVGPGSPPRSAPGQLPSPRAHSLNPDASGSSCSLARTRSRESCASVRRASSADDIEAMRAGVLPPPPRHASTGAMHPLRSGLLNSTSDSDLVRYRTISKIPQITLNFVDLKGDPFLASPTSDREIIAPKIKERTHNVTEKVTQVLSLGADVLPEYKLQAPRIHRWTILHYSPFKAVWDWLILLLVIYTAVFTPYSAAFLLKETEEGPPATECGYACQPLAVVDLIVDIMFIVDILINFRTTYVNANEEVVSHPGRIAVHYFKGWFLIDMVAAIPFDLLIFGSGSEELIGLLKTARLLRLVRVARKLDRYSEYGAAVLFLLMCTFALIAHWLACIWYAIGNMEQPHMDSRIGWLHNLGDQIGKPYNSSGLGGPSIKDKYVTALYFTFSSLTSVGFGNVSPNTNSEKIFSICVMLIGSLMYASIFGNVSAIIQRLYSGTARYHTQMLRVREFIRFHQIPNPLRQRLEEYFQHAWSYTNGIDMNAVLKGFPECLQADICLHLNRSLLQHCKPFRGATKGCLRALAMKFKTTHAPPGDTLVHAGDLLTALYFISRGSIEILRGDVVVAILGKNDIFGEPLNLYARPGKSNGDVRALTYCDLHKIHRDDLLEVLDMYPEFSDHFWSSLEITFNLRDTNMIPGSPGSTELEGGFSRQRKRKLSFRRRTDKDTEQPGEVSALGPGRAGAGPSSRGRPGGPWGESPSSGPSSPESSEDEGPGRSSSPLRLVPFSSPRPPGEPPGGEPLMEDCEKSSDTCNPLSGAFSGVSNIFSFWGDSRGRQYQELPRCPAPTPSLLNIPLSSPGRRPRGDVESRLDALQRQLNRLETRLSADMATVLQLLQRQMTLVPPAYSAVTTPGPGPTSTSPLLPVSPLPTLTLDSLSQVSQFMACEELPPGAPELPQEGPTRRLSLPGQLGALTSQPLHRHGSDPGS
For the compound `CCCCn1c(N)c(N(CC(C)C)C(=O)c2ccc(N3C(=O)c4ccccc4C3=O)cc2)c(=O)[nH]c1=O`, the “hERG current change (%, negative = inhibition) at 1uM” value came to 8.76%.
For `COCCN1C(=O)N[C@@H](c2cccc(F)c2)C(C(=O)OC)=C1C` the value was -10.7%; for `O=C(O)c1sccc1Oc1ccc(NS(=O)(=O)c2ccccc2)cc1`, 17.2%.
For `CCOC(=O)/C=C1\NC2(CCCCC2)Cc2cc(OC)c(OC)cc21` the value was 4.21%; for `Cc1ccc(N2CCN(C3=NC(=O)/C(=C\c4cn[nH]c4-c4ccccc4)S3)CC2)cc1`, 11.3%.
The value for `O=C1CCCN1CCCNC(=S)Nc1ccc(F)cc1` was 7.2%; that for `Cc1ccc(-n2c(C)nc3ccccc3c2=O)c(C)c1` was 10.1%.
`C=CCn1c(SCC(=O)c2cc(C)n(CC3CCCO3)c2C)nnc1-c1ccccc1` (centres unmarked): the “hERG current change (%, negative = inhibition) at 1uM” value is given as 8.27%.
The value for `CC(C)[C@H](NC(=O)c1ccccc1Cl)C(=O)OCc1cc([N+](=O)[O-])cc2c1OCOC2` was -2.64%; that for `CC(C)c1csc(CN2CCC(N3CCC(C(=O)NCC4CCCO4)CC3)CC2)n1` (centres unmarked) was 9.96%.
Regarding `CCOC(=O)c1ccc(N2C=C(C(=O)OC)C(c3ccc(OC)c(O)c3)C(C(=O)OC)=C2)cc1`, the “hERG current change (%, negative = inhibition) at 1uM” value is listed as 12.8%.
Turning to `CCOC(=O)c1ccc(NC(=O)CCNC(=O)c2ccc([N+](=O)[O-])cc2)cc1`, the “hERG current change (%, negative = inhibition) at 1uM” value was -19.8%.
The value for `C/C(=N\NC(=O)c1ccc(Cl)cc1)c1ccc2[nH]ccc2c1` was 19.8%; that for `CN(C(=O)COC(=O)C1=COCCO1)C1(C#N)CCCCC1` was 11.8%.
As to `Cc1c(C(=O)N2CCOCC2)oc2ccc(S(=O)(=O)N3CCCC3)cc12`, the “hERG current change (%, negative = inhibition) at 1uM” value is given as 1.96%.
With `CC(Sc1nnc(-c2ccc(Cl)cc2)n1N)C(=O)NCC1CCCO1` (centres unmarked), the “hERG current change (%, negative = inhibition) at 1uM” value worked out at 14.1%.
The value for `Cc1ccc(-c2csc3nc[nH]c(=O)c23)cc1` was 12.1%; that for `CCC(=O)Nc1ccc(C(=O)OCC(=O)c2cccs2)cc1` was 6.88%.
Turning to `C=C1CCN([C@H](C(=O)NCc2ccco2)C(C)C)S(=O)(=O)c2ccccc21`, the “hERG current change (%, negative = inhibition) at 1uM” value turned out to be 5.28%.
For `Cc1ccc2c(c1)N(C(=O)CCC(=O)NCc1cccnc1)CCO2` the value was -4.63%; for `COCCOC(=O)c1c(C)n(C)c2ccc(OC(=O)C3CC3)cc12`, 12.7%; for `COc1ccc(N/N=C/c2c(O)n(-c3ccc(C)c(C)c3)c(=O)[nH]c2=O)cc1`, 16.4%.
For `O=C(c1cc([N+](=O)[O-])[nH]n1)N1CCSCC1` the value was 8.77%; for `COCCNC(=O)c1cc(-c2ccc(Cl)c(Cl)c2)on1`, 10.3%.
The value for `Cc1cccn2c(=O)c(C=Nc3ccccc3)c(NCCO)nc12` was 6%; that for `O=C(CSc1nnc(-c2ccc(Br)cc2)n1C1CCCCC1)N1CCCC1` was -6.48%.
For `COc1ccc(NC(=S)NCCN2CCC(C)CC2)cc1`, the “hERG current change (%, negative = inhibition) at 1uM” value is on record as 4.13%.
The value for `N#Cc1ccc(C(=O)CSc2n[nH]c(=O)n2-c2cccnc2)cc1` was 12%.
For `CC(=O)c1ccc(N2CCN(C(=S)NCc3ccco3)CC2)cc1` the value was 1.83%; for `CC(=O)O.Cc1nc2nc(CSc3nnc(C)s3)cc(=O)n2[nH]1`, 10.1%; for `CCCCCCCCS(=O)CCC(=O)O` (centres unmarked), 7.32%.
For `CCc1nc2cccnc2n1-c1ccc(CC(=O)NCCOC)cc1` the value was 17.5%; for `O=C(NC1(O)C(=O)c2ccccc2C1=O)c1c(Cl)cccc1Cl`, 15.9%; for `CC1CN(C(=O)CSc2nnc(-c3ccc(Cl)cc3)n2C)CC(C)O1` (centres unmarked), -3.02%.
For the compound `Cc1c(-n2cc(C(=O)c3ccccc3O)cc(C#N)c2=O)c(=O)n(-c2ccccc2)n1C.Cl`, the “hERG current change (%, negative = inhibition) at 1uM” value is reported as 6.19%.
The value for `COc1cccc(NC(=O)CN(C)C(=O)CSc2nc3ccccc3s2)c1` was 5.91%; that for `Fc1cccc(Cl)c1COc1ccc(-c2nnco2)cc1` was 10.8%; that for `CCC(C)(C(=O)NC1CCCCC1)N(Cc1cccs1)C(=O)Cc1cccs1` (centres unmarked) was 3.05%.
The value for `CCn1c(SCC(=O)OC2CCCCC2)nnc1-c1ccncc1` was -0.573%; that for `COc1ccc(/C=c2\s/c(=C/C(=O)c3ccc(C)cc3)[nH]c2=O)c(OC)c1` was 13.4%.
In the case of `Cc1ccc(S(=O)(=O)Nc2ccccc2C(=O)NCc2cccnc2)cc1`, the “hERG current change (%, negative = inhibition) at 1uM” value was determined as 9.65%.
As for `O=P(CN1CCN(c2ccccc2)CC1)(N1CCCCC1)N1CCCCC1`, the “hERG current change (%, negative = inhibition) at 1uM” value came out at 6.36%.
The value for `O=[N+]([O-])c1cc(C(F)(F)F)c(Cl)cc1N1CCN(CCO)CC1` was -0.146%; that for `CCCCn1c(N)c(N(CCOC)C(=O)CCS(=O)(=O)c2ccc(Cl)cc2)c(=O)[nH]c1=O` was 21.1%.
For `COc1ccc(NC(=O)COC(=O)Cc2c(F)cccc2Cl)cc1OC` the value was 8.82%.
In the case of `Cc1cc(C(=O)CSc2nnc(Cc3ccccc3)o2)c(C)n1Cc1ccc2c(c1)OCO2`, the “hERG current change (%, negative = inhibition) at 1uM” value is 8.36%.
For `OCCN1CCN(c2ncnc3c2c(-c2ccccc2)cn3-c2ccc(Br)cc2)CC1` the value was 9.48%.
The value for `CC(=O)N1CC2(C)CN(C(C)=O)CC(C)(C1)C2O` (centres unmarked) was 9.01%; that for `CCCCOCCCNC(=O)Cc1cccs1` was 13.7%.
For `CCCCNC(=S)NCc1ccc2[nH]c(C)cc2c1`, the “hERG current change (%, negative = inhibition) at 1uM” value was 1.51%.
As to `CCOc1ccccc1N(CC)C(=O)c1nn(C)c2c1CSc1ccccc1-2`, the “hERG current change (%, negative = inhibition) at 1uM” value is reported as 9.83%.
For `CCn1c(/C=C2\C(=O)Nc3ccccc32)nc2ccccc2c1=O` the value was 14.5%; for `Cc1ccc(C)c(NC(=S)NNC(=O)c2csc3c2CCCC3)c1`, -13%.
For the compound `O=C(NCCCN1CCOCC1)C1CC(=O)N(CCc2ccccc2)C1` (centres unmarked), the “hERG current change (%, negative = inhibition) at 1uM” value is 14.3%.
The value for `CCCCn1c(-c2cccnc2)nc2cc3[nH]c(=O)c(C(C)C)nc3cc21` was 0.579%; that for `CN(C(=O)c1cccs1)c1ccc(OCC(=O)Nc2ccc(C(=O)O)cc2)cc1` was 11.8%.
In the case of `CCOC(=O)C1=CC[C@H]2c3c(c4ccccc4n3C)C[C@H]1N2C`, the “hERG current change (%, negative = inhibition) at 1uM” value turned out to be 15.5%.
For `COc1ccc(C2Nc3ccccc3C(=O)N2NS(=O)(=O)c2ccccc2)cc1OC` (centres unmarked) the value was 8.25%; for `Nc1c(C(=O)c2ccc(Cl)cc2)sc2nc3c(cc12)CCC3`, 12.4%; for `O=C(Nc1cccc([N+](=O)[O-])c1)NC1CCCCCCC1`, 11%.
For `O=C(O)C(=O)O.OCCNCCCOc1ccc(Cl)cc1Br` the value was -3.62%; for `CCNS(=O)(=O)c1ccc(NC(=O)Nc2cc(C)ccc2OC)cc1`, 12.8%.
Take `Cc1ccc(CN(C(=O)c2csnn2)C(C(=O)NC2CCCC2)c2ccccn2)cc1` (centres unmarked): the “hERG current change (%, negative = inhibition) at 1uM” value is 12.2%.
For `COc1ccc(NC(=O)CSc2nnc(C)n2C2CC2)cc1S(=O)(=O)N1CCOCC1` the value was 11.9%; for `COC(=O)c1cccc(NC(=O)/C(=C\c2ccccc2)NC(=O)c2ccccc2Cl)c1`, 15.2%; for `CC(=O)Nc1ccc(OC(=O)CC2SC(=O)NC2=O)cc1` (centres unmarked), 1.13%.
The value for `O=C(CSc1n[nH]c(=O)[nH]c1=O)c1cccc([N+](=O)[O-])c1` was 14.7%; that for `NCCCC[C@@H]1NC(=O)[C@H](CCC(=O)O)NC(=O)c2cc([N+](=O)[O-])cc(I)c2NCC[C@@H](C(N)=O)NC1=O` was 21.2%; that for `NC(=O)Cn1cc(/C=N\NS(=O)(=O)c2ccccc2)c2ccccc21` was 17.5%.
As to `COc1ccc(CN2CCc3cc(OC)c(OC)cc3C2)cc1O`, the “hERG current change (%, negative = inhibition) at 1uM” value is reported as -17.7%.
For `O=C(Nc1ccc(-c2nc3ccccc3[nH]2)cc1)c1ccc(N2C(=O)CCC2=O)cc1` the value was 14.4%; for `Cc1cccc(NC(=O)COc2ccc(Br)cc2C)n1`, 12.7%; for `O=C(N/N=C/c1ccco1)c1cccc(N2CCCC2=O)c1`, 11.9%.
The value for `O=C(NCCCn1ccnc1)C(=O)NCC(c1ccco1)N1CCN(c2ccc(F)cc2)CC1` (centres unmarked) was 4.08%; that for `Cc1ccc(C2(C)NC(=O)N(CC(=O)Nc3ccccc3N3CCCCC3)C2=O)cc1` (centres unmarked) was 17.1%.
The value for `Cc1cccnc1NC(=O)C1CCN(S(=O)(=O)c2ccc3ccccc3c2)CC1` was 14.4%; that for `CC1(C)N=C(c2cccc(F)c2)C(=O)N1` was -2.57%; that for `Nc1ccccc1C(=O)NNc1ncc(C(F)(F)F)cc1Cl` was 1.76%.
On to `CCOc1cccc(/C=C(/C#N)c2nc3ccccc3[nH]2)c1OCC(=O)O`, for which the “hERG current change (%, negative = inhibition) at 1uM” value was determined as 13.7%.
For `CCOc1ccc(N(C)S(=O)(=O)c2cc(-c3cc(C)no3)ccc2OC)cc1` the value was 8.35%.
With `CCOc1cc(C(=O)N/N=C/c2ccoc2)cc(OCC)c1OCC`, the “hERG current change (%, negative = inhibition) at 1uM” value is given as 6.54%.
`O=C(Nc1ccc2c(c1)OCO2)c1cccc2c1C(=O)N(C1CCCCC1)C2`: the “hERG current change (%, negative = inhibition) at 1uM” value was found to be 13.4%.
`CCCC/C(C)=N/NC(=O)Nc1ccccc1`: the “hERG current change (%, negative = inhibition) at 1uM” value is recorded as 0.55%.
With `O=C(c1cc([N+](=O)[O-])ccc1N1CCOCC1)N1CCCC1`, the “hERG current change (%, negative = inhibition) at 1uM” value is on record as 5.56%.
For `O=C1CCCc2nc3c(cc21)C(O)Oc1c-3ccc2ccccc12` (centres unmarked) the value was 2.73%.
The value for `COc1ccc(S(=O)(=O)NN=C2CCCCC2)cc1` was 4.69%; that for `O=C(NCc1ccccn1)/C(=N/O)c1ccccc1` was 9.34%; that for `COc1cc(C)nc(N2CCC(C(N)=O)CC2)n1` was 4.53%.
For `CCCCCOc1ccc(C(O)C(CN2CCOCC2)c2ccccc2)cc1.Cl` (centres unmarked) the value was 13.4%.
